The list shows a part of the results. At the low end of the ranking the order means little.
target: SIX1-Q177R homeodomain (UniProt Q15475); assay: universal protein binding microarray; details: Universal all-10-mer PBM (8x60K, AMADID 030236), 300 nM GST-tagged protein, Alexa Fluor 488 anti-GST; buffer, salt, pH and temperature not stated; high values mean tight binding; most listed sequences are background and not binding sites; double strand, one strand shown

Sequence | binding signal [E-score]
GGATTATA | -0.00877
CGAAGCAG | -0.0995
AGAGCCCG | -0.124
CCGTTGTA | -0.157
CACTGCTG | 0.0496
CAATGCCG | -0.146
ACCCTCTC | 0.164
GATCGGAC | -0.174
ACAAGTCT | -0.239
ATAAAGAG | 0.0902
AAACACGG | 0.349
CAGAGAGG | -0.0662
ATCGATGG | -0.189
GAAGGAAC | -0.0244
ACGAGCCC | 0.0769
TCACTTAA | -0.124
CCGATTTC | -0.303
ATTCGCAC | 0.0617
ATATCACC | 0.0333
ACATCCAT | -0.223
GATCATAC | 0.144
ACGCATTG | 0.0238
CCTACGTA | -0.172
ATGTATAA | -0.0407
GGGAACTA | -0.0323

Sequence | binding signal [E-score]
ATGTGGCC | -0.237
ACACTACC | 0.421
TCTCAGAA | -0.196
AGTAGCTA | -0.0926
CAGTACGG | -0.0411
AGATCTAT | -0.108
ATTAGGGC | -0.206
ATAGATCA | -0.167
ATGTTCAA | -0.204
GCCGCTAC | -0.0679
AAGGCAGT | -0.216
ATACAAGG | -0.0921
CTACATGA | -0.0286
AGGCACAT | -0.312
AGTGTGAT | 0.223
CCGAGCCC | -0.104
ATGTTAGC | -0.118
GTAACTAA | 0.0533
ACGTCGGA | 0.032
GAACTGGC | -0.357
ATTATTTA | -0.169
TATCCACA | 0.0551
GAAAACAC | 0.383
GATAGCGC | -0.158
CTCTAGTC | -0.182

Sequence | binding signal [E-score]
CATCTTTA | 0.00882
ATTGATCC | 0.187
GGAACTGA | -0.151
ACAGGATA | -0.0109
GACTGCGA | -0.13
TTATCGAA | -0.087
CGGGCCAC | -0.149
ATCTCCTG | -0.0623
GTGTACCA | 0.445
AGAAAAAA | -0.284
AAAGCTAA | -0.199
TAGCCTAA | -0.0549
CACAGATA | 0.155
CACGGCCA | 0.124
GATTATCA | 0.0233
ATTCTAAA | -0.164
AGGTAAGG | -0.176
AGTCGCAC | 0.0893
ATACATGC | -0.0223
ACACGTCA | 0.323
CCCGACCG | 0.0803
AGCAACAC | 0.361
AACCGAAC | -0.0129
GTACGCCA | 0.147
CAACTGCC | -0.309

Sequence | binding signal [E-score]
ACGGTGCG | 0.167
GACGGACA | 0.112
CCCGCGAA | 0.132
AGGCAAGC | -0.193
CCAGCTGG | 0.263
AAACAGAC | -0.27
CGACCTGC | -0.163
AGGGATCC | 0.212
ATGCTCCA | -0.124
ATTTGTGC | -0.232
ATGGGGGG | 0.153
AAGTGTAC | 0.391
AGCTCGAC | -0.284
CTCCTAAG | -0.00275
ACCTACGA | 0.0887
ATAAAATC | -0.151
ACTCATTA | -0.123
GTAATGGA | 0.0835
GAATCGCA | -0.0637
CACCGAAG | 0.283
CAATGCTA | -0.235
ACATTGGT | -0.188
AGACGCAC | 0.0355
ATTGTCTA | -0.0366
CGAAAAAA | -0.133

Sequence | binding signal [E-score]
GGCTCAAA | -0.142
AGACTTAT | -0.267
AATAATGA | -0.0786
CGCACATA | -0.047
CGACTCCC | 0.263
GAGAGTGC | 0.1
TAGGCCGA | -0.063
ACGAGGGG | 0.208
CGCGGACG | -0.176
CAAGTGAG | -0.0897
GCTTGGCC | -0.18
ATTGACAA | -0.193
AAGCGCTA | -0.144
ACGATTCC | 0.124
CACCTAGA | 0.276
AGACGCTC | -0.19
CCTCAGTC | -0.274
AAATAACA | 0.143
CCGAATAA | 0.0822
ATAGACTG | -0.247
CGGCTCGA | 0.0325
ATGGAGCA | -0.0865
AACTAAAT | -0.0976
GACCTCGA | -0.0536
ATACTGGC | -0.032

Sequence | binding signal [E-score]
GTTTACAA | -0.028
AATCGGGA | -0.0709
CATAGATG | -0.115
ACACGACT | 0.411
ACTTCGAA | -0.263
GGCCCCCC | -0.103
ATGGCAAC | -0.199
CTTTAGGA | -0.213
GCGCCACA | -0.0245
CCTCAGCG | 0.00288
GAGGTCCC | -0.293
GGCCTTAC | -0.213
ACCGCGTC | 0.0164
CCCGAGTA | 0.167
CGTGTTGC | 0.333
AAACGGCA | 0.0627
GCGCTAGA | -0.00604
GTCCGATA | -0.00404
AAGGTACA | 0.122
CAGGTTAC | -0.0373
GTCCTACA | 0.243
GACATCTC | -0.0724
ATAGACAG | -0.187
GAACCCGA | 0.112
AAACACAG | 0.0607

Sequence | binding signal [E-score]
ACAGTGAA | 0.0269
ATCGTGGG | -0.124
CGGGGGCA | 0.0198
CTTCCACA | -0.124
ATGGTATG | -0.0622
AGGACGTG | 0.0793
GTCCCCTA | 0.0845
CACGCTAA | 0.082
ACCATCAA | -0.102
ATTGCACA | -0.112
AAAGGAAT | -0.245
AACGCTAC | -0.0414
AGATACTG | -0.0928
AATATGAG | -0.213
AGAAGCGG | -0.00419
GAGCATAC | -0.0188
CTAATAAA | -0.166
GGAGATCC | 0.00281
TCTACGCA | -0.237
GGGTAAAA | 0.0874
CAGACGCA | -0.031
GCCTACAC | 0.442
CTGTGGAC | 0.0386
AGGTAGCC | -0.0452
AATACCGC | 0.0215

Sequence | binding signal [E-score]
CTGCTGAC | 0.0561
AGTAGCGA | 0.0415
ACCTGTAT | 0.17
AGTAGTGG | -0.033
CGTCAAAA | -0.0376
CTTGAAGA | -0.222
CGCCGTGA | -0.0719
CTGCCGTC | -0.0744
GAAATCGC | -0.228
CTGATGTC | -0.319
AAAGTTGG | -0.105
ATATTAGA | -0.00137
CACGACAC | 0.448
GCGGGTTA | 0.21
GATTATCC | 0.0323
TGGTCGAA | -0.0184
GCCGAATA | -0.101
AGGCTATA | -0.115
GATCGTCA | -0.0104
ATGCTCGC | -0.233
AGTTAGCC | -0.224
ACAGGACA | 0.0498
AAACAAAT | -0.146
CAAAGGTA | 0.0551
AAATTTGG | -0.286

Sequence | binding signal [E-score]
AAGCCCAG | -0.22
AATGACGC | 0.125
CGTGTAGA | 0.379
GATGACTA | -0.148
ACAGGGCA | -0.0909
CGCCGCAC | 0.151
ATGGTCTC | -0.157
CCGAACAG | -0.0745
AAGGCCAG | -0.0629
TGTTGGAA | 0.091
CCGCTTTA | 0.139
GTCGGTAA | -0.0896
AATCAAGC | -0.109
CCTTGTCG | -0.18
GAGTCAGC | 0.0775
CCCTGGAG | 0.00733
ACCACGGT | -0.0281
AGTAAGAC | -0.067
ACTTATCC | -0.00901

Reference: PMC10668032
